# Measurements from the BET-seq Pho4 binding data (Le et al. 2018).
# The list shows a part of the results. The energies were worked out here from pooled read counts, against the library average; single values are noisy.
# Molecular target: T1, Pho4 (S. cerevisiae) (UniProt P07270)
# T1 sequence: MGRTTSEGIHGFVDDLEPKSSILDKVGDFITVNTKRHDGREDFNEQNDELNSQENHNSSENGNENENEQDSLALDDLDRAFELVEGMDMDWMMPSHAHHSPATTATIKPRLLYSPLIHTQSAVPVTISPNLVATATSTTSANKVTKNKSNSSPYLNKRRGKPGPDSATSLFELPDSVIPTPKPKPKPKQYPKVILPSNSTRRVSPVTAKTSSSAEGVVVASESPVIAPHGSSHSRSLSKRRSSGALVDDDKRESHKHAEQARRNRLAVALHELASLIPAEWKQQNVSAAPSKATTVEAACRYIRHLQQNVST
# Assay: relative binding free energy (BET-seq); higher = weaker binding
# Conditions: reference: library average
row,Sequence,relative binding free energy
1,GTATGCACGTGAGTCA,0.19 kcal/mol
2,TTGGGCACGTGGAACG,-0.11 kcal/mol
3,GGACACACGTGTGTAT,0.09 kcal/mol
4,AAGGGCACGTGTGAGG,-0.03 kcal/mol
5,TTCAGCACGTGTTATA,0.06 kcal/mol
6,ATGGTCACGTGAGGGA,0.31 kcal/mol
7,TTTGTCACGTGTGACG,0.11 kcal/mol
8,AGACTCACGTGATGGG,0.35 kcal/mol
9,GTCCACACGTGAGGGG,0.24 kcal/mol
10,TACGTCACGTGGGGGA,-0.14 kcal/mol
11,GGTTCCACGTGTAAAG,0.28 kcal/mol
12,TGCGTCACGTGTATGG,0.1 kcal/mol
13,TAGGGCACGTGCGGGA,-0.21 kcal/mol
14,TAGAGCACGTGTGGGG,-0.1 kcal/mol
15,TATAGCACGTGGCTAT,-0.11 kcal/mol
16,TGGGACACGTGACGGA,0.18 kcal/mol
17,GACTGCACGTGTGTGA,0.08 kcal/mol
18,ACGATCACGTGGGGGT,0 kcal/mol
19,TGATACACGTGTATGC,0.15 kcal/mol
20,CGTGTCACGTGGGGTA,-0.11 kcal/mol
21,CCTGGCACGTGGTAGG,-0.16 kcal/mol
22,TAATGCACGTGTGATT,0.03 kcal/mol
23,GGTAACACGTGTGGGA,0.1 kcal/mol
24,TTTGACACGTGTGGAA,0.18 kcal/mol
25,GCGTTCACGTGGATGT,0.28 kcal/mol
26,ATGCGCACGTGTAGGA,0.02 kcal/mol

row,Sequence,relative binding free energy
1,TGAGGCACGTGAGAGG,0.15 kcal/mol
2,ATTTTCACGTGAGCGT,0.31 kcal/mol
3,GGGCACACGTGAGGAT,0.23 kcal/mol
4,GGGCGCACGTGGTTAG,-0.07 kcal/mol
5,TTGTACACGTGAGTTT,0.3 kcal/mol
6,TAGTGCACGTGAATGG,0.29 kcal/mol
7,GGGCTCACGTGGGCGT,-0.14 kcal/mol
8,GTTGTCACGTGGCAAG,0.12 kcal/mol
9,GTTTACACGTGTGCTA,-0.01 kcal/mol
10,CGGTACACGTGTCTGG,0.13 kcal/mol
11,AGTGTCACGTGAGGTG,0.29 kcal/mol
12,TGTGACACGTGAAGTA,0.2 kcal/mol
13,TTATACACGTGAGTGA,0.27 kcal/mol
14,GGGAACACGTGTGTTA,-0.05 kcal/mol
15,GTGATCACGTGAGTTT,0.4 kcal/mol
16,AGATCCACGTGGTTTT,0.11 kcal/mol
17,TATGTCACGTGGTTGC,0.04 kcal/mol
18,TAGTTCACGTGCTGTG,0.12 kcal/mol
19,TGTGTCACGTGGAAAA,0.2 kcal/mol
20,TGGCACACGTGTGGTG,0.15 kcal/mol
21,GCAGTCACGTGTGGTG,0.05 kcal/mol
22,TTGAGCACGTGAAGGT,0.17 kcal/mol
23,TATTTCACGTGGGCTA,-0.05 kcal/mol
24,AAACGCACGTGGGTTT,-0.1 kcal/mol
25,GAGTACACGTGGCTGT,0.14 kcal/mol
26,GGTTACACGTGTCAAT,0.28 kcal/mol

row,Sequence,relative binding free energy
1,TTCTTCACGTGAGGTT,0.37 kcal/mol
2,TTAGTCACGTGCTGTT,0.14 kcal/mol
3,TGATACACGTGTGGTC,-0.04 kcal/mol
4,GGTCTCACGTGGTGCG,0 kcal/mol
5,AATTTCACGTGTATGA,0.3 kcal/mol
6,TATGGCACGTGGATCA,0.01 kcal/mol
7,GTCATCACGTGGGGGT,0.16 kcal/mol
8,AGGTGCACGTGATTAT,0.14 kcal/mol
9,CGTATCACGTGTGGTC,0.25 kcal/mol
10,TTAGCCACGTGAATTG,0.29 kcal/mol
11,GTTGCCACGTGTGGTT,0.06 kcal/mol
12,GCTGTCACGTGGGGGG,-0.04 kcal/mol
13,TAGGTCACGTGATGAT,0.26 kcal/mol
14,AGGGGCACGTGCCGGG,-0.26 kcal/mol
15,AATTGCACGTGTCGTA,-0.06 kcal/mol
16,ATGAGCACGTGTTGGC,0.03 kcal/mol
17,GGTGGCACGTGTGAGC,-0.11 kcal/mol
18,GAGATCACGTGGGCGG,0.1 kcal/mol
19,TTGGGCACGTGTAGGC,0.11 kcal/mol
20,ATGTACACGTGATTTC,0.19 kcal/mol
21,AACCGCACGTGGTGTG,-0.09 kcal/mol
22,TTTCGCACGTGTCGTG,0 kcal/mol
23,GTAGGCACGTGAATGG,0.19 kcal/mol
24,CGTCTCACGTGTTTTT,0.2 kcal/mol
25,CTTGGCACGTGTATTA,0.01 kcal/mol
26,CCGGTCACGTGAAGGT,0.24 kcal/mol

row,Sequence,relative binding free energy
1,CGTGTCACGTGGGATA,0 kcal/mol
2,AGGGTCACGTGATAAT,0.32 kcal/mol
3,TAAGTCACGTGATATT,0.3 kcal/mol
4,TGGAGCACGTGTCGGA,0.01 kcal/mol
5,GATGTCACGTGTTCGA,0.24 kcal/mol
6,GTTGGCACGTGAAGGA,0.29 kcal/mol
7,AGTGTCACGTGGAGGA,0.11 kcal/mol
8,CGTGACACGTGTAAGG,0.01 kcal/mol
9,TTACGCACGTGGGGCA,-0.28 kcal/mol
10,TATAACACGTGGGGTA,-0.29 kcal/mol
11,GTGGGCACGTGGATAA,-0.03 kcal/mol
12,TGTCACACGTGTTATT,0.07 kcal/mol
13,ACAGTCACGTGGGGTA,-0.05 kcal/mol
14,TATGACACGTGTAGGG,0.05 kcal/mol
15,CTGTTCACGTGTTAGG,0.22 kcal/mol
16,GTGGACACGTGGCATT,0.11 kcal/mol
17,GATTGCACGTGGGTAA,-0.14 kcal/mol
18,TGCGTCACGTGTGACT,0.2 kcal/mol
19,CTGGTCACGTGAATGA,0.36 kcal/mol
20,TCCGGCACGTGGGGTG,-0.26 kcal/mol
21,TGTAACACGTGTGTAA,-0.04 kcal/mol
22,AAGTGCACGTGATTAT,0.02 kcal/mol
23,GGTGTCACGTGCGCGC,0.09 kcal/mol
24,GGGGGCACGTGCTGAA,-0.25 kcal/mol
25,AGTGCCACGTGCTGTG,-0.14 kcal/mol
26,GGCTTCACGTGATTTG,0.39 kcal/mol

row,Sequence,relative binding free energy
1,TGTGGCACGTGCTTCG,-0.05 kcal/mol
2,AAGGTCACGTGCGATT,0.13 kcal/mol
3,AATGTCACGTGGATAT,0.11 kcal/mol
4,TGGGACACGTGGTTAC,0.06 kcal/mol
5,ATTGGCACGTGGGACA,-0.21 kcal/mol
6,GGCTACACGTGGGTCG,0.15 kcal/mol
7,GCGCGCACGTGAGTGG,0.14 kcal/mol
8,TCGGTCACGTGAACTG,0.47 kcal/mol
9,GGTATCACGTGTCTTG,0.23 kcal/mol
10,GAGGTCACGTGGTAGG,0.19 kcal/mol
11,TTTAGCACGTGTCGCA,0.01 kcal/mol
12,AGGAGCACGTGAGATG,0.07 kcal/mol
13,GGGTGCACGTGTACGA,0 kcal/mol
14,CAGCGCACGTGGGTGG,-0.19 kcal/mol
15,ATATTCACGTGATCGG,0.35 kcal/mol
16,TAGGACACGTGTTCGT,-0.08 kcal/mol
17,TAAGGCACGTGGGTAA,-0.25 kcal/mol
18,TTTAACACGTGGTTTG,-0.06 kcal/mol
19,GCAATCACGTGGGTGG,0.07 kcal/mol
20,TGGATCACGTGGTCGA,0 kcal/mol
21,CTGATCACGTGTGGGT,0.15 kcal/mol
22,TTTCACACGTGGGGAA,0.05 kcal/mol
23,TAGGGCACGTGGCGGG,-0.19 kcal/mol
24,ATTTACACGTGTCGGG,0.21 kcal/mol
25,AATAGCACGTGCTGGG,-0.14 kcal/mol
26,GGGAACACGTGCAGTG,0.08 kcal/mol

row,Sequence,relative binding free energy
1,ACGGTCACGTGGGCTG,0.1 kcal/mol
2,GATAGCACGTGCTAGT,-0.01 kcal/mol
3,TTATTCACGTGTACAG,0.22 kcal/mol
4,GCGACCACGTGGTTGG,0.12 kcal/mol
5,AATATCACGTGGCTTT,0.2 kcal/mol
6,CTGTGCACGTGAGGGC,-0.02 kcal/mol
7,AGGTACACGTGTCGTA,0.07 kcal/mol
8,TAGGTCACGTGGGCTC,0.01 kcal/mol
9,TTGGTCACGTGGCATA,0.1 kcal/mol
10,GCTTGCACGTGGTGAG,0.02 kcal/mol
11,CGGGACACGTGTTTTT,0.21 kcal/mol
12,GTCTGCACGTGTAGGA,0.15 kcal/mol
13,TGTGACACGTGAGCTT,0.15 kcal/mol
14,TGATTCACGTGTGGGT,0.32 kcal/mol
15,GTTGGCACGTGAAATG,0.17 kcal/mol
16,AGGCACACGTGTGTGA,0.02 kcal/mol
17,AAAGTCACGTGTATTT,0.12 kcal/mol
18,AACATCACGTGGGTAT,0.16 kcal/mol
19,GGTAGCACGTGCTGTT,-0.03 kcal/mol
20,TTGTTCACGTGGCAGC,0.12 kcal/mol
21,TGGATCACGTGTAATA,0.28 kcal/mol
22,AAAGTCACGTGGGGGT,-0.08 kcal/mol
23,GGAACCACGTGGGGGT,-0.19 kcal/mol
24,TGCGCCACGTGGTTTA,-0.02 kcal/mol
25,TAATTCACGTGTCGTG,0.1 kcal/mol
26,AGTCTCACGTGGGGCT,-0.01 kcal/mol

row,Sequence,relative binding free energy
1,TGGATCACGTGTAATG,0.14 kcal/mol
2,TTGTTCACGTGCTGGT,0.2 kcal/mol
3,GTTAGCACGTGTTGTC,0.07 kcal/mol
4,CTTGGCACGTGACGTA,0.09 kcal/mol
5,GTTTTCACGTGGCGAG,0.24 kcal/mol
6,TCTGGCACGTGTTGTT,-0.09 kcal/mol
7,ATTTTCACGTGAGCGG,0.32 kcal/mol
8,GTGGTCACGTGAGAGC,0.43 kcal/mol
9,AAATGCACGTGGACGG,0.02 kcal/mol
10,ATAATCACGTGTTTTT,0.1 kcal/mol
11,GGATTCACGTGGTATA,0.29 kcal/mol
12,GTGTTCACGTGTTAAA,0.32 kcal/mol
13,CTGATCACGTGGTGGA,0.17 kcal/mol
14,GGGGTCACGTGAAACG,0.37 kcal/mol
15,GTAGACACGTGTTTTT,0.01 kcal/mol
16,GCGGGCACGTGGATTT,-0.09 kcal/mol
17,TGAGGCACGTGTTTGC,-0.29 kcal/mol
18,TAATGCACGTGTTCTT,-0.01 kcal/mol
19,TACCGCACGTGGGTGT,-0.16 kcal/mol
20,TAGGACACGTGGTTTA,-0.04 kcal/mol
21,GAGTGCACGTGCGGTT,-0.05 kcal/mol
22,TCTGGCACGTGAGAGA,0.18 kcal/mol
23,GTGTTCACGTGAGTCA,0.45 kcal/mol
24,GTGCTCACGTGGGGTC,0.08 kcal/mol
25,TCCATCACGTGTTTGT,0.09 kcal/mol
26,GGGCACACGTGCGTGT,-0.14 kcal/mol

row,Sequence,relative binding free energy
1,TTCGACACGTGGTTAG,0.01 kcal/mol
2,TGTAACACGTGTATTA,-0.03 kcal/mol
3,AAGGTCACGTGCGTAT,0.02 kcal/mol
4,TGCTACACGTGCTTGT,0.06 kcal/mol
5,TGGTTCACGTGGTGAT,0.2 kcal/mol
6,GGGGTCACGTGTCTTG,0.08 kcal/mol
7,ATTCGCACGTGAAGGG,0.24 kcal/mol
8,GTGGGCACGTGTAGTC,-0.08 kcal/mol
9,TTTGTCACGTGATTTT,0.41 kcal/mol
10,TTATGCACGTGACATG,0.11 kcal/mol
11,GGTAGCACGTGGGGAT,-0.11 kcal/mol
12,TGGCACACGTGGTGGG,-0.01 kcal/mol
13,TGATGCACGTGCGGTT,-0.07 kcal/mol
14,CACAGCACGTGGGGGT,-0.34 kcal/mol
15,CATTTCACGTGGAGTT,0.18 kcal/mol
16,TGTTGCACGTGTAATG,0.16 kcal/mol
17,TTATGCACGTGGTAAG,-0.14 kcal/mol
18,ATGAGCACGTGTTAGA,0 kcal/mol
19,GCTAGCACGTGGTTGT,0.02 kcal/mol
20,ATCGGCACGTGGGCTT,-0.17 kcal/mol
21,AGTAACACGTGTTAGG,-0.02 kcal/mol
22,ATAGGCACGTGAGGGG,0.13 kcal/mol
23,GTGGTCACGTGACTAT,0.15 kcal/mol
24,GGAGTCACGTGATATC,0.5 kcal/mol
25,TCTGTCACGTGGTTAG,0 kcal/mol
26,AAGGGCACGTGTAATG,0.01 kcal/mol

row,Sequence,relative binding free energy
1,GGGAGCACGTGAGCAG,0.12 kcal/mol
2,GGAGTCACGTGTTGGG,0.21 kcal/mol
3,AATAGCACGTGGTATT,-0.22 kcal/mol
4,ATTTGCACGTGCCTGG,-0.13 kcal/mol
5,GCGCGCACGTGGGCGG,-0.39 kcal/mol
6,AAGTGCACGTGTTTGG,-0.05 kcal/mol
7,TTTTTCACGTGTGGAT,0.39 kcal/mol
8,GGTGACACGTGAGGAG,0.22 kcal/mol
9,GGACTCACGTGGGTTT,0.3 kcal/mol
10,CCCGGCACGTGGTGGT,-0.22 kcal/mol
11,GCTTGCACGTGGCTGG,-0.15 kcal/mol
12,GGCTACACGTGCGTGT,0.07 kcal/mol
13,TGTAACACGTGAGGCG,0.11 kcal/mol
14,TTGTTCACGTGGTTTG,0.28 kcal/mol
15,AGTTGCACGTGCGTCT,-0.1 kcal/mol
16,GAATTCACGTGGTCAT,0.48 kcal/mol
17,GTGTGCACGTGTCGGC,0 kcal/mol
18,CTCGTCACGTGGGGTG,-0.03 kcal/mol
19,AGGGTCACGTGTAATT,0.15 kcal/mol
20,GTTTTCACGTGTTAGC,0.37 kcal/mol
21,AACGGCACGTGTATGA,0.14 kcal/mol
22,TTATACACGTGTCTTG,0.07 kcal/mol
